Source: the supplement of paper PMC3334620
Whole data set: some 33,000 sequences, median “E-score (-0.5 to 0.5)” near -0.013, cut for the highest 2% near 0.3. Some of the results follow.

What follows are sequences tested against T1, Msn1 (UniProt P22148) (assay: PBM E-score (8-mer binding enrichment) (E-score (-0.5 to 0.5)); higher = stronger / more preferred TF binding; most listed sequences are background and not binding sites). Settings: protein concentration: 200 nM; construct: GST-full length.
T1 sequence: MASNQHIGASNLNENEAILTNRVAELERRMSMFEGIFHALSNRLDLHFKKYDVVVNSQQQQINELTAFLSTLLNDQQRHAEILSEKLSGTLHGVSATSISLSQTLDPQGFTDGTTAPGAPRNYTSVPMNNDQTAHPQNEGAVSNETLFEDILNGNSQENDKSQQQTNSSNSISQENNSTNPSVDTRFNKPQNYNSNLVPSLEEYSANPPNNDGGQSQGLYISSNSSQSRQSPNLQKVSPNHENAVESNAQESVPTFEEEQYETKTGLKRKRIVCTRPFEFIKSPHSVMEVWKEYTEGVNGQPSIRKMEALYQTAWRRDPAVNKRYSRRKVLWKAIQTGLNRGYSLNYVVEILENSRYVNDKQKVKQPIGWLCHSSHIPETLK
Description: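 Universal 'all 10-mer' protein binding microarrays (Agilent AMADID 015681) probed with GST-tagged S. cerevisiae TFs (full-length or DBD) made by in vitro transcription/translation (PURExpress), about 100-200 nM. Bound TF was detected with fluorescent anti-GST. Each ungapped 8-mer (which stands for itself and its reverse complement) is scored by the PBM enrichment score (E-score), a modified Wilcoxon-Mann-Whitney statistic from -0.5 to +0.5, computed with the Universal PBM Analysis Suite. Scale: above 0.35 generally sequence-specific binding.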

Sequence | PBM E-score
CGGCCCTC | -0.139
GGGATCAC | -0.286
AGTAACGG | 0.0143
CCGATAGC | -0.175
AGGAGTAT | -0.312
AGATAGCC | -0.187
CCCGACGC | -0.00326
ATCTTCTG | -0.134
CGCAGACC | -0.123
GCTAGCAC | -0.084
TACCCATA | -0.0173
CATCCATA | 0.0681
GGGTGTGA | -0.134
CCTCCGCA | -0.151
ACAATCGG | 0.271
GCATTGAC | -0.0839
CACAGGAA | 0.0261
AATCTCAA | -0.0619
ACTTAGCA | -0.0833
CCACCTCA | -0.174
GGTGTTAC | -0.0745
AACACGAC | 0.00642
GAGCTTCC | -0.0316
ATGCTGGA | -0.0259
AGACAAAA | 0.437

Sequence | PBM E-score
CACCGCAA | 0.039
GCTCCTCC | -0.309
GCACTCGC | -0.0631
AAGTGACA | 0.212
GCAGCGGA | 0.0601
AAGTACCC | -0.0939
CATATATC | 0.115
ATCTGGCG | -0.113
CCTGTTAG | 0.12
ACTCGTAA | 0.0754
CCAACAGC | -0.084
GAGGCGGA | -0.3
TGGTGACA | 0.19
CCAGACAG | -0.094
ATCGCGAT | 0.0975
AGGTGTAA | 0.00173
ATCTCTGG | 0.00384
CGCTGGTC | -0.156
GATCCTAC | 0.0164
CAAAGTGC | 0.0233
ACTCCCCT | -0.275
CGCCACAA | -0.016
CGTGATTC | -0.101
ACGGGGGC | -0.218
TCGCCACA | -0.15

Sequence | PBM E-score
CATAGTAA | 0.146
CCTTTGAA | -0.154
GGGGCCGA | -0.394
CTGTGGCA | -0.0645
TAGATCCA | -0.0364
AAGGTACT | 0.155
ACTATCAC | 0.0583
AACTCACG | 0.0813
TAGTGAGA | -0.0792
AGTGGTCG | -0.0675
TAGTTCAA | -0.0528
CCTATACG | -0.162
GGAGTCCC | -0.227
ATCTAACA | -0.162
ATGGAGCG | -0.0801
AAAAAATG | 0.287
GTTATAGA | 0.0971
CGGCGGTA | 0.136
GGGAAGGA | -0.141
CCAACGGC | -0.132
GCGGCTGA | -0.191
TCCGCAAA | 0.137
CGGATTAG | -0.00838
AAGATCTA | -0.185
AACGTCCA | 0.154

Sequence | PBM E-score
CCCTATAC | -0.129
CCCGGTGC | -0.235
ATCGGACA | 0.369
ACCCCAAG | -0.113
CGGAAGCA | 0.0289
ATTGGCGG | 0.00685
GACCTTAC | -0.148
CGTGAATA | 0.034
GAGTAAAA | 0.121
ACTAAATG | 0.133
GCGTGCAA | -0.206
CAGGAAGC | 0.0602
AGATGTCC | 0.477
AGTGCCAC | -0.131
AAAACCGG | 0.141
AAGCTGGG | -0.145
CTCCATAA | -0.129
CTAAGACC | 0.0795
AAGTGCCG | 0.221
AAAAAACC | 0.21
TGGGACCA | -0.117
AGAGCCAA | -0.0542
GCTGGACA | 0.276
CCGCGAGG | 0.0728
CTCTTCGA | -0.168

Sequence | PBM E-score
AGTCTCCC | -0.192
AGCGGACG | 0.0534
AGCTATAT | -0.00185
CGCTGAAA | -0.0354
CCCTTCCC | -0.207
TCAATTCA | -0.0849
GCCTCCTA | -0.184
GGGCGAGA | -0.16
GTAGGGAC | 0.178
GAGGCGGC | -0.13
ACTGGTGC | -0.177
TAGCCTAA | -0.184
CATATGAG | 0.153
GTACGGTA | -0.0464
GGCAGGAA | -0.075
ATCCGAAA | 0.057
ACCAAGAC | 0.248
ATGGCCTC | -0.118
AACCGAGC | -0.0343
AGTGCAAG | 0.104
AGCGAGTC | -0.241
CACAATTC | 0.176
GAGCGCCC | -0.218
TACATAAA | 0.15
CGGCCGAG | 0.156

Sequence | PBM E-score
CCCCAAGC | 0.0454
ACAACGCC | 0.0528
TCAATAGA | -0.0443
GAGAATGC | 0.0856
CCTAGGGA | -0.0411
GTGCGATA | -0.01
GCGTGAAA | 0.179
ACTCCAAT | -0.00308
GAGTGTGC | 0.0104
ATGACTGC | -0.0346
TCCTCCAA | -0.142
CTGAACTC | -0.0622
ATGACTTG | 0.0928
ACTATGTA | 0.094
AATACCCG | -0.00878
CTGGCAAA | -0.00405
ATCTTCGA | -0.0568
GCCCACGA | -0.0363
GGGCGAAA | 0.124
ATTCTGCC | 0.0249
TAGCAGGA | 0.0461
AAGTTCTG | 0.07
CAGAGACC | -0.103
AATAGAAG | 0.155
CTTAGAAA | 0.164

Sequence | PBM E-score
CGCGCGGA | 0.00041
CTCGCCTC | -0.144
CTGGATAC | -0.0105
CTGCTCGC | 0.0139
AACCTCGG | 0.102
GGTTAGAC | 0.076
AGTTAGAT | -0.0679
AGAGACTG | -0.231
ACCGAGCA | -0.177
ACTCGCCA | -0.00104
ATCACCGC | -0.177
GGAATGCA | -0.141
ACGAGTTG | 0.0583
ACGCGTTA | 0.041
GTTTATCA | 0.165
GAAAACGC | 0.0675
CCACAGAA | 0.11
AACACGAT | 0.0472
AATCGCAC | -0.135
ATTGGGTA | 0.165
ATTTATTC | 0.241
GATCGATA | 0.136
